# The campaign covered roughly 310,000 compounds. About 14,000 (4.5%) showed an effect of 50% or more. Effects have a minus sign here. The list shows a part of the results.
# Molecular target: human ether-à-go-go-related gene (hERG) potassium channel (human, UniProt Q12809)
# Test: primary screen, population patch clamp on CHO cells stably expressing hERG
# 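Further: peak tail current of the secondary pulse compared with the same well before compound.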
# Chain of human ether-à-go-go-related gene (hERG) potassium channel (Q12809 whole entry, looked up): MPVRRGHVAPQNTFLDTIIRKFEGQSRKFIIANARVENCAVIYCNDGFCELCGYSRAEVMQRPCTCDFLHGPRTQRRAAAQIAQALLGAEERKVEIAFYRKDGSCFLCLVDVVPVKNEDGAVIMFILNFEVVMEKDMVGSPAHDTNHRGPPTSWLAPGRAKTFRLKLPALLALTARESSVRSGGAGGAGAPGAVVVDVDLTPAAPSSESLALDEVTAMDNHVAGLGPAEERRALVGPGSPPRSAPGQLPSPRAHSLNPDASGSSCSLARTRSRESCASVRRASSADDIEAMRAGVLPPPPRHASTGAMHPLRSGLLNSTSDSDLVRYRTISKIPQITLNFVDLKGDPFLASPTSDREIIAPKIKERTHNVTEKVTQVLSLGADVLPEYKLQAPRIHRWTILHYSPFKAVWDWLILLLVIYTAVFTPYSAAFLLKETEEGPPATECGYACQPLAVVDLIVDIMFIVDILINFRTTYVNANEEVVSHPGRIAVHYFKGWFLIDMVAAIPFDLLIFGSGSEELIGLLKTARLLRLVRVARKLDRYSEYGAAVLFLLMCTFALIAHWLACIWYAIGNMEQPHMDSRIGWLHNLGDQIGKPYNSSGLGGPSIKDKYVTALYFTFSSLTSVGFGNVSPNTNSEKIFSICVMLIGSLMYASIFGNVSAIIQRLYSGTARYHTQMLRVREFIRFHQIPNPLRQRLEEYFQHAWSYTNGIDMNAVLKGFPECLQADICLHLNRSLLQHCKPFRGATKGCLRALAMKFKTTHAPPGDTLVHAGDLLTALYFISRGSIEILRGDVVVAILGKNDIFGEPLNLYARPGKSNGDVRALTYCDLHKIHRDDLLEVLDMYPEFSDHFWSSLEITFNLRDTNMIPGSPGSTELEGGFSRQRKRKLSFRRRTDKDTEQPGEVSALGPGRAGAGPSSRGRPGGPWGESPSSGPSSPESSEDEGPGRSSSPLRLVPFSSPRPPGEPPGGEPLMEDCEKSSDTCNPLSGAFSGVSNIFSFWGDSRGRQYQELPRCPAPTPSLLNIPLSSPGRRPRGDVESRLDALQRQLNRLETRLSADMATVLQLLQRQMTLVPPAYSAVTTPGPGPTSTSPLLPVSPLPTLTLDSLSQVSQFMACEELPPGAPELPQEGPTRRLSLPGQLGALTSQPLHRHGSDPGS
row,Compound,"hERG current change (%, negative = inhibition) at 10uM"
1,CC(C)CN(C)Cc1c(C(=O)N2CCc3ccccc3C2)nc2ccc(Cl)cn12,-53.2%
2,COc1ccccc1CN(CC(=O)NCc1ccc(F)cc1)C(=O)c1csnn1,-35.3%
3,CNS(=O)(=O)c1cccc(C(=O)OCC(=O)C23CC4CC(CC(C4)C2)C3)c1,-5.22%
4,CC(C)(C)N=Cc1c(O)ccc2oc3c(c12)CCCC3,30.8%
5,CN(c1ccccc1)c1nc(N)c([N+](=O)[O-])c(NC2CCCCC2)n1,13.4%
6,CCOC(=O)c1cc2c(N)c(C(=O)c3cc(C#N)c(SC)nc3C)sc2nc1C,-0.985%
7,CCc1ccc(OCCOC(=O)Nc2ccccc2)cc1,14.6%
8,O=C(Cn1cnc2ccccc2c1=O)Nc1cccc(-c2nnc3n2CCCCC3)c1,0.387%
9,Clc1ccccc1Cn1nnc2c(N3CCCC3)ncnc21,-12.5%
10,CCC(=O)N(CCc1ccccc1C)Cc1cc2cc3c(cc2[nH]c1=O)OCO3,-3.05%
11,O=C(O)CCN1CCN(S(=O)(=O)c2ccc3ccccc3c2)CC1,14.1%
12,CC(=O)NC1(C(F)(F)F)N=C(c2ccccc2)NC1=O (stereo not shown),0.264%
13,COc1ccc(/C=C2/C(=O)N(c3nc4ccccc4s3)N=C2CSc2ccc(Cl)cc2)cc1,1.45%
14,COc1cccc(NC(=O)CS(=O)(=O)c2cn(CC(=O)N3CCOCC3)c3ccccc23)c1,6.05%
15,Cc1ccc(Nc2nc3ccccc3c(=O)s2)cc1C,6.94%
16,O=C(N(c1ccccc1)c1ccccc1)n1ccnc1,-10.5%
17,CCc1cccc(C)c1NC(=O)Nc1c(Br)cnn1C,25.7%
18,Cc1ccc2c(c1)sc(-c1ccc(N(C)C)cc1)[n+]2C.[I-],-60%
19,c1ccc(C(c2ccccc2)c2noc(CN3CCN(C4CCCC4)CC3)n2)cc1,-70.1%
20,CC(=O)NC(=S)Nc1cc(C(F)(F)F)ccc1N1CCOCC1,-30.7%
21,CP(C)(=O)CCC(=O)O,9.22%
22,Cc1ccc(Sc2cc(C)nc(-c3ccccn3)n2)cc1,-21.2%
23,Cc1nn(-c2ccccc2)c(Cl)c1C(=O)OC(C)C(=O)Nc1ccc2c(c1)OCO2 (stereo not shown),8.26%

row,Compound,"hERG current change (%, negative = inhibition) at 10uM"
1,COc1ccc(C)cc1S(=O)(=O)N(C)CC(=O)Nc1ccccc1,-4.57%
2,CCNc1ccc(Br)cc(C(=O)/C=C/c2ccccc2Cl)c1=O,-12%
3,O=C(CSc1ncccc1-c1nc2ccccc2[nH]1)NC1CC1,-2.91%
4,O=C(O)CNC(=O)c1ccc(NC(=O)/C(=C/c2ccccc2)NC(=O)c2ccccc2Br)cc1,19.3%
5,O=C(CSc1nnc(C2CC2)n1CC1CCCO1)Nc1ccccc1Cl (stereo not shown),7.68%
6,CCc1nnc(NC(=O)c2cccc(S(=O)(=O)N3CCCCC3)c2)s1,25.2%
7,O=c1[nH]c2cc3c(cc2cc1CN(CCN1CCOCC1)C(=S)NCC1CCCO1)OCO3 (stereo not shown),-15.2%
8,CC1(C)C2([N+](=O)[O-])CN3CC1([N+](=O)[O-])CN(C2)C3c1ccccc1 (stereo not shown),28.7%
9,CC(=O)c1cn(CC(=O)Nc2cccc(C)c2C)c2ccccc12,20.6%
10,O=C(NCC1CCCO1)C(=O)NCC1CCCN1S(=O)(=O)c1ccccc1 (stereo not shown),14.2%
11,CCOc1ccc(CC(=O)NNC(=S)NC2CCCCC2)cc1OCC,0.59%
12,CN1CCN(Cc2nnc3n2-c2ccc(Cl)cc2C(c2ccccc2)=NC3)CC1.O=CO,-64.7%
13,CC(C)c1ccc(NC(=O)CCc2ccccc2)cc1,11.8%
14,O=C(NC1CCOC1)c1ccc(OC2CCN(CCc3ccccc3)CC2)cc1 (stereo not shown),-39.8%
15,CCCCCCCn1ccc(=N)cc1.I,-14.7%
16,Nc1ccc(SC(F)(F)F)cc1,38.3%
17,Cc1ccc(S(=O)(=O)N/N=C/c2cc(Br)ccc2O)cc1,5.71%
18,O=C(O)c1ccc(S(=O)(=O)NCC2CCCCC2)cc1,13.2%
19,OC(C#CCN1CCCCC1)c1ccccc1 (stereo not shown),-4.92%
20,COc1ccc(CN2CCCC(C(=O)N3CCc4ccccc4C3)C2)cc1OC (stereo not shown),-62%
21,COc1cc(OC)c(OC)cc1CNCCNC(=O)c1nonc1N.Cl,-0.502%
22,O=C(NCc1ccco1)c1ccc2c(=O)n(-c3ccccc3)c(=S)[nH]c2c1,7.36%
23,Cc1ccc(C)c(OCc2nnc(SCC(=O)NC(=O)NCc3ccco3)o2)c1,16.7%

row,Compound,"hERG current change (%, negative = inhibition) at 10uM"
1,Fc1ccc(/C=N/NC(=S)NCCc2ccccc2)cc1F,17.2%
2,Cc1ccc(S(=O)(=O)N2CCN(c3ncnc4sccc34)CC2)cc1,-35.7%
3,Cc1cc(C)cc(NC(=O)COC(=O)CC2CCCC2)c1,-0.633%
4,O=c1oc2cc(O)ccc2cc1-c1ccc(F)cc1,2.96%
5,COc1cccc(C(=O)C2CCCN(Cc3ccc(OC)c(Cn4cncn4)c3)C2)c1 (stereo not shown),-58.6%
6,COc1ccc(N(CC(=O)N2CCN(c3cccc(Cl)c3)CC2)S(=O)(=O)c2c(C)noc2C)cc1,16.7%
7,CNc1cc(CSc2ccc(Cl)cc2)nc(C)n1,11.1%
8,CN(CC(=O)Nc1ccc(Cl)cc1)C(=O)c1sccc1-c1ccccc1,-16.5%
9,C=CCn1c(SCC(=O)N2CCOCC2)nc2ccccc2c1=O,-28.4%
10,CCc1ccc(C(C)NC(=O)Cc2ccc(F)cc2)cc1 (stereo not shown),3.7%
11,Cc1cccc(Nc2nc(N3CCOCC3)nc(N3CCOCC3)n2)c1,-13.1%
12,COc1cccc(Oc2nc(N)ncc2[N+](=O)[O-])c1,22.1%
13,O=C(c1ccccc1)N1CCN(c2ccc([N+](=O)[O-])c(N3CCOCC3)c2)CC1,-7.22%
14,Cc1nnc(SCC(=O)Nc2nc3c(s2)CC(C)CC3)s1 (stereo not shown),-7.17%
15,Cc1nn(C)c(C(=O)N/N=C/c2ccc(-c3ccccc3)cc2)c1Cl,11.6%
16,CCn1cc(C2=NC(C(C)C)CO2)c2ccccc21 (stereo not shown),-3.97%
17,c1csc(-c2ccc(N3CCOCC3)nn2)c1,-13.9%
18,O=C(O)CONC(=O)c1cc(OCC(F)(F)F)ccc1OCC(F)(F)F,12.5%
19,CNC(=S)NNS(=O)(=O)c1ccc(OC)cc1OC,19.5%
20,C=CCn1c(-c2cccc(OC)c2)nc2nc3ccccc3nc21,-2.04%
21,Cc1ccc(C)c(C(=O)COC(=O)c2ccccc2N2C(=O)C3C4CCC(C4)C3C2=O)c1 (stereo not shown),-2.6%
22,C=CCOc1c(Br)cc(CNc2nccs2)cc1OC,-19.5%
23,COC(=O)c1ccccc1NC(=O)CS(=O)(=O)Cc1nc(-c2ccc(C)cc2)oc1C,13.5%

row,Compound,"hERG current change (%, negative = inhibition) at 10uM"
1,CCCCCOC(=O)NCC(O)c1ccccc1 (stereo not shown),7.39%
2,Cc1cc([N+](=O)[O-])nn1CCCC(=O)NC1CCCCC1,0.172%
3,O=C(c1ccc(CS(=O)Cc2cccc(Cl)c2)o1)N1CCN(C2CCCCC2)CC1 (stereo not shown),-16.5%
4,O=C(CC1NCCc2ccccc21)Nc1cccc(Cl)c1 (stereo not shown),-16.6%
5,COc1ccc(CC(=O)Oc2ccccc2C)cc1S(=O)(=O)N1CCOCC1,-9.73%
6,COCCOC(=O)C1=C(C)Nc2nc(C)nn2C1c1ccccc1 (stereo not shown),1.58%
7,Cc1cc2oc(C(=O)NC3CCS(=O)(=O)C3)c(C)c2cc1C (stereo not shown),2.69%
8,CNc1nc(-c2ccccc2)cc(C(F)(F)F)c1C#N,-0.0555%
9,Cc1noc(C)c1COC(=O)CCc1ccc(S(=O)(=O)N2CCCCC2)cc1,-25.9%
10,O=C(Nc1ccccc1SCC1CSc2nc3ccccc3c(=O)n21)c1cccc(Cl)c1 (stereo not shown),-75.5%
11,CC(=O)NS(=O)(=O)c1ccc2sc(C)nc2c1,19.7%
12,CC(=O)Nc1ccc(Nc2nc(C)cc(C)n2)cc1,13.9%
13,CCCn1c(SCC(=O)Nc2cc(S(=O)(=O)N3CCCCC3)ccc2C)n[nH]c1=O,-20.5%
14,COc1cccc(Nc2nc(-c3ccccc3)nc3ccccc23)c1,11.2%
15,O=C1NC(=O)C(Cc2ccccc2)(c2cccnc2)N1 (stereo not shown),17.7%
16,Cc1cc(Br)ccc1NC(=O)C1CCN(S(=O)(=O)c2cnc[nH]2)CC1,8.88%
17,CSc1nc(N2CCN(Cc3ccc4c(c3)OCO4)CC2)c2ccccc2n1,-16.7%
18,CC(NCC(O)c1ccc([N+](=O)[O-])cc1)C12CC3CC(CC(C3)C1)C2 (stereo not shown),-69.4%
19,O=C(Nc1nc2c(s1)CCCC2)c1cc(-c2ccccc2)nc2ccccc12,1.32%
20,Cc1noc(C(F)(F)F)c1C(=O)NNC(=O)c1cccc(C(F)(F)F)c1,7.51%
21,c1coc(CN2CNc3nc4ccccc4n3C2)c1,10%
22,S=c1[nH]ccn1CCc1ccccc1,22.7%
